Measured values published in the supplement of paper PMC12067230.
This is a noisy data set.

Test: amyloid nucleation score relative to library mode (yeast Sup35 reporter selection) (log enrichment difference); higher = more amyloid nucleation; sequences are the first 22 residues of the Bri2 peptide extended by up to 12 random residues
Conditions: random library (experiment): 1;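 active = nucleation score significantly above 0 at FDR 0.05; inactive = not significantly above 0 or absent from output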
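Note: [psi-pin-] Saccharomyces cerevisiae expressing SupN fusions, induced by 100 µM Cu2SO4, selected 7 d at 30 °C without adenine and uracil, scored by deep sequencing of output versus input.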

Sequence	amyloid nucleation score
EASNCFAIRHFENKFAVETLICIVTHYYRMTVWC	inactive
EASNCFAIRHFENKFAVETLICIVVRS	inactive
EASNCFAIRHFENKFAVETLICIVWVFVSKSEMM	inactive
EASNCFAIRHFENKFAVETLICIWESLCSRYHTD	4.72
EASNCFAIRHFENKFAVETLICIWGTLSLYAPCT	inactive
EASNCFAIRHFENKFAVETLICIWLEAFGLSGYS	inactive
EASNCFAIRHFENKFAVETLICIWQSARYAKTLR	inactive
EASNCFAIRHFENKFAVETLICIWVCSLLTTARW	inactive
EASNCFAIRHFENKFAVETLICIYGLDCLLLL	-0.179
EASNCFAIRHFENKFAVETLICIYPVVMPNQLVR	5.2
EASNCFAIRHFENKFAVETLICIYRCAPQCRDYV	2.51
EASNCFAIRHFENKFAVETLICIYRMFQHSGWLR	inactive
EASNCFAIRHFENKFAVETLICIYVQWLYPCKSL	inactive
EASNCFAIRHFENKFAVETLICIYYLNLSIRSNA	inactive
EASNCFAIRHFENKFAVETLICKA	0.49
EASNCFAIRHFENKFAVETLICKAESENWRDV	inactive
EASNCFAIRHFENKFAVETLICKAEVSARSQH	1.58
EASNCFAIRHFENKFAVETLICKAFHTYHNLS	3.9
EASNCFAIRHFENKFAVETLICKAFKARNGGSGP	-0.648
EASNCFAIRHFENKFAVETLICKAQITQCCWKPL	2.77
EASNCFAIRHFENKFAVETLICKARMLGRIKPWS	inactive
EASNCFAIRHFENKFAVETLICKASGERGTKGAW	2.66

Sequence	amyloid nucleation score
EASNCFAIRHFENKFAVETLICKASGR	inactive
EASNCFAIRHFENKFAVETLICKAVMGWVEQRLR	inactive
EASNCFAIRHFENKFAVETLICKAVTET	inactive
EASNCFAIRHFENKFAVETLICKAYWPRCDAWVM	inactive
EASNCFAIRHFENKFAVETLICKC	inactive
EASNCFAIRHFENKFAVETLICKCCRLFILLESV	inactive
EASNCFAIRHFENKFAVETLICKCESRVESHSRS	7.81
EASNCFAIRHFENKFAVETLICKCF	5.88
EASNCFAIRHFENKFAVETLICKCHCARSVLQLM	inactive
EASNCFAIRHFENKFAVETLICKCLCPIFPVHPE	7.36
EASNCFAIRHFENKFAVETLICKCMSCQ	5.51
EASNCFAIRHFENKFAVETLICKCRFPGHAFVAM	inactive
EASNCFAIRHFENKFAVETLICKCSEGRIISLGV	inactive
EASNCFAIRHFENKFAVETLICKCVRYTHFNSVV	inactive
EASNCFAIRHFENKFAVETLICKCYTYIQYDSSR	1.12
EASNCFAIRHFENKFAVETLICKDRVCSLRHVVR	inactive
EASNCFAIRHFENKFAVETLICKDVGTCFKDVIE	inactive
EASNCFAIRHFENKFAVETLICKECTALASATEW	inactive
EASNCFAIRHFENKFAVETLICKEGGCQWGPMRR	inactive
EASNCFAIRHFENKFAVETLICKEQWSESSMIRA	inactive
EASNCFAIRHFENKFAVETLICKERQSGRRCIWR	inactive

Same assay, conditions: random library (experiment): 2

Sequence	amyloid nucleation score
EASNCFAIRHFENKFAVETLICIVTILYNLNSCA	inactive
EASNCFAIRHFENKFAVETLICIVTMSRSLACW	inactive
EASNCFAIRHFENKFAVETLICIVVCLITLRF	inactive
EASNCFAIRHFENKFAVETLICIVVDDDCECRCS	7.48
EASNCFAIRHFENKFAVETLICIVVLPRLFNTWR	-0.0488
EASNCFAIRHFENKFAVETLICIVVWVGICQCLV	inactive
EASNCFAIRHFENKFAVETLICIVYDNPRRIMF	inactive
EASNCFAIRHFENKFAVETLICIVYRD	5.42
EASNCFAIRHFENKFAVETLICIVYYSFSRSMWG	3.06
EASNCFAIRHFENKFAVETLICIWATCSSGECLW	2.98
EASNCFAIRHFENKFAVETLICIWDFCSRGESWS	7.07
EASNCFAIRHFENKFAVETLICIWECRWGKVLWV	3.11
EASNCFAIRHFENKFAVETLICIWEI	3.53
EASNCFAIRHFENKFAVETLICIWEWKCRSGMGV	-0.104
EASNCFAIRHFENKFAVETLICIWFDQAFGNIFL	3.09
EASNCFAIRHFENKFAVETLICIWHYTECYYILR	0.357
EASNCFAIRHFENKFAVETLICIWIYFYCGPFYV	inactive
EASNCFAIRHFENKFAVETLICIWNGYFLFVMVR	inactive
EASNCFAIRHFENKFAVETLICIWSMNRCNVAAG	inactive
EASNCFAIRHFENKFAVETLICIWSMSELWYTQW	inactive
EASNCFAIRHFENKFAVETLICIY	inactive
EASNCFAIRHFENKFAVETLICIYAPFFNSCSRS	8.78
EASNCFAIRHFENKFAVETLICIYCPMSQTVNRE	9.19
EASNCFAIRHFENKFAVETLICIYGCVIHSRG	inactive
EASNCFAIRHFENKFAVETLICIYGTALKWTCID	inactive
EASNCFAIRHFENKFAVETLICIYGYHFRDRLVF	0.494

Sequence	amyloid nucleation score
EASNCFAIRHFENKFAVETLICIYHGVTCLPEVA	1.8
EASNCFAIRHFENKFAVETLICIYLHCLASMSSK	inactive
EASNCFAIRHFENKFAVETLICIYLNCD	6.84
EASNCFAIRHFENKFAVETLICIYLPKFYLYLST	inactive
EASNCFAIRHFENKFAVETLICIYNEHRVNFSCL	2.98
EASNCFAIRHFENKFAVETLICIYPRARVYLLSN	inactive
EASNCFAIRHFENKFAVETLICIYQGML	2.1
EASNCFAIRHFENKFAVETLICIYSALHTTWTFW	inactive
EASNCFAIRHFENKFAVETLICIYVLSCMLAMTR	inactive
EASNCFAIRHFENKFAVETLICIYVYHVFKIRLF	inactive
EASNCFAIRHFENKFAVETLICKALYSDCNGEWR	4.6
EASNCFAIRHFENKFAVETLICKAQC	-0.0488
EASNCFAIRHFENKFAVETLICKCFCTSGSSV	7.75
EASNCFAIRHFENKFAVETLICKCFLFYTVRSGG	-0.207
EASNCFAIRHFENKFAVETLICKCGN	5.2
EASNCFAIRHFENKFAVETLICKCIPCLLTVSSG	inactive
EASNCFAIRHFENKFAVETLICKCLRSKPRVKVA	4.23
EASNCFAIRHFENKFAVETLICKCMRWGNWDGYG	2.85
EASNCFAIRHFENKFAVETLICKCSFVYTSQPGN	6.01
EASNCFAIRHFENKFAVETLICKDFVFILLRGLR	inactive
EASNCFAIRHFENKFAVETLICKDKGPMR	inactive
EASNCFAIRHFENKFAVETLICKDLFRQGPNTDL	6.94
EASNCFAIRHFENKFAVETLICKDRVRWSCYWCV	inactive
EASNCFAIRHFENKFAVETLICKDSSEFSIFERE	inactive
EASNCFAIRHFENKFAVETLICKE	inactive
EASNCFAIRHFENKFAVETLICKEIVYCRWAHQE	1.18

Same assay, conditions: random library (experiment): 3

Sequence	amyloid nucleation score
EASNCFAIRHFENKFAVETLICIVSTDTCRVRLG	3.81
EASNCFAIRHFENKFAVETLICIVVA	inactive
EASNCFAIRHFENKFAVETLICIVWFSMKRSRYY	inactive
EASNCFAIRHFENKFAVETLICIVYLGMVWRWAG	inactive
EASNCFAIRHFENKFAVETLICIW	7.33
EASNCFAIRHFENKFAVETLICIWDVWVYRVGLG	inactive
EASNCFAIRHFENKFAVETLICIWQ	7.08
EASNCFAIRHFENKFAVETLICIWTWCSKVTLVK	inactive
EASNCFAIRHFENKFAVETLICIYVGSLYSHSCV	inactive
EASNCFAIRHFENKFAVETLICIYWSNLCCSYGV	5.14
EASNCFAIRHFENKFAVETLICKAA	inactive
EASNCFAIRHFENKFAVETLICKAGMFGWGAVTA	inactive
EASNCFAIRHFENKFAVETLICKAKVRRLGYRDM	inactive
EASNCFAIRHFENKFAVETLICKAVMVSVMRGAG	-0.724
EASNCFAIRHFENKFAVETLICKAVTKCNWGCVS	inactive
EASNCFAIRHFENKFAVETLICKCADSPM	7.03
EASNCFAIRHFENKFAVETLICKCARMSG	3.93
EASNCFAIRHFENKFAVETLICKCHLVCW	inactive
EASNCFAIRHFENKFAVETLICKCKLSRRLRALF	2.41
EASNCFAIRHFENKFAVETLICKCTMAAELTCQC	inactive
EASNCFAIRHFENKFAVETLICKDGVNVYGKHIG	inactive
EASNCFAIRHFENKFAVETLICKECLYHLGCQVA	inactive
EASNCFAIRHFENKFAVETLICKEFVGTSSHGVG	inactive
EASNCFAIRHFENKFAVETLICKEPGLFANLNQG	inactive
EASNCFAIRHFENKFAVETLICKESE	inactive
